Measurements published in publication PMC7819943, “Rice protein-binding microarrays: a tool to detect cis-acting elements near promoter regions in rice”.
The other results are listed elsewhere or left out.

molecular target: T1, OsWOX13 (Oryza sativa, UniProt Q5QMM3 1-267); test: protein-binding microarray (RPBM); PBS, 2% BSA, 51.3 ng/ul salmon testes DNA, 50 uM zinc acetate, 200 nM TF, 25 C, 1 h; high values mean tight binding; settings: protein: recombinant; tags: N-terminal polyhistidine and DsRed monomer fusion (pET32a); label: CyDye5-dUTP incorporated in the synthesized complementary strand; 3' TTTTT single-stranded linker to array surface; dsDNA, one strand shown
T1 sequence: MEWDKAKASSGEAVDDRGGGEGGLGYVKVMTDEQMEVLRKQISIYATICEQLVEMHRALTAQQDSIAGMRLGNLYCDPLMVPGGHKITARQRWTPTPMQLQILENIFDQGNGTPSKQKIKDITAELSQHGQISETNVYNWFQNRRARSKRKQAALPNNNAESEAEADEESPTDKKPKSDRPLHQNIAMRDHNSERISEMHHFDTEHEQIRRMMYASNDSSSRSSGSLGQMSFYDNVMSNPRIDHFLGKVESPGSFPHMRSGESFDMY
Outline: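 Per-feature fluorescence intensity (arbitrary units), read on an Axon 4000B scanner, is the binding signal. Transcription factors carrying an N-terminal polyhistidine tag and DsRed fusion were expressed in E. coli BL21-CodonPlus and purified on Ni–NTA. A custom Agilent array, made double-stranded by primer extension with Cy5-dUTP and blocked with 2% BSA, was incubated with 200 nM protein in PBS, 2% BSA, salmon testes DNA and 50 µM zinc acetate at 25 °C for 1 h and then washed.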

Sequence	binding signal
GCGCCATGATGTTCAATCAGATGACATCATAACGTAAAGACGGAGTCACCTAGTGCAG	18600 fluorescence intensity (a.u.)
TAGGATTATGTTGGTGATGATGATGACTAGTGTGCCTGAACGGAGTCACCTAGTGCAG	4220 fluorescence intensity (a.u.)
TACTTAATTATTCACATGCTAATGACTTATTTGCTACATTCGGAGTCACCTAGTGCAG	34300 fluorescence intensity (a.u.)
AATAATTGAAACAGAAAGCTTTAAGCTGCTGGTGTTCCCTCGGAGTCACCTAGTGCAG	33000 fluorescence intensity (a.u.)
ATCCTCTTTCATCTCATCCGTCCATCCACCATTTCATTTACGGAGTCACCTAGTGCAG	4000 fluorescence intensity (a.u.)
AAATAATTGTTTAAGATTTATCCATGCCACTAAATAGTTTCGGAGTCACCTAGTGCAG	18500 fluorescence intensity (a.u.)
GTGATTGACTGATTGTGTGATTGTGTGAAGTGTATTGGTTCGGAGTCACCTAGTGCAG	65000 fluorescence intensity (a.u.)
GTTAGTTAATGGAAGACAGCCCCTGGTACCTTTCCAATGGCGGAGTCACCTAGTGCAG	3650 fluorescence intensity (a.u.)
ATGTGTAAATTGAATTAATGGAGTTGGTTGTGAAATCGTTCGGAGTCACCTAGTGCAG	25300 fluorescence intensity (a.u.)
ACGGATTAATTAGGCTTAATAAATTTGCCTCGCGGTTTCTCGGAGTCACCTAGTGCAG	39200 fluorescence intensity (a.u.)
AGTGTAATTTGTGACAATTACTCAGACAACTCTGCATTTTCGGAGTCACCTAGTGCAG	20700 fluorescence intensity (a.u.)
ATGCCAATTAACCTCCAAGATAAGCATCCATCGATCCACCCGGAGTCACCTAGTGCAG	8590 fluorescence intensity (a.u.)
TTATATTAATTGATGGTCATTATTGTTGGAGATTATATTGCGGAGTCACCTAGTGCAG	60800 fluorescence intensity (a.u.)
TTTGATTAGATGGTGTGGTGTTTGGCTGATACACTGATACCGGAGTCACCTAGTGCAG	32500 fluorescence intensity (a.u.)
CTGTTGTGAACAAACTAATTATTGGATGCTGAATTGATGACGGAGTCACCTAGTGCAG	4900 fluorescence intensity (a.u.)
GATGATTTTGTAACTCGGTGACAAGATGAGGGACCTCTGGCGGAGTCACCTAGTGCAG	23200 fluorescence intensity (a.u.)
ATATATATATATATATATATATATATATATAGATACAATCCGGAGTCACCTAGTGCAG	6200 fluorescence intensity (a.u.)
AACATTGATTAATATTGGTCAAAATATTTTCAACTCTAAACGGAGTCACCTAGTGCAG	19200 fluorescence intensity (a.u.)
ACCTAAATTTGAATGCTTACATCATTTTGATGATAAATAACGGAGTCACCTAGTGCAG	8650 fluorescence intensity (a.u.)
ACAAAATTAAGTTTAAAACTGACTTTATAATTTAAAGTTGCGGAGTCACCTAGTGCAG	9010 fluorescence intensity (a.u.)
CTTATATCTTAATTGGACTTGACTTCGGGCCAGAAGTACACGGAGTCACCTAGTGCAG	25200 fluorescence intensity (a.u.)
CTATACTGATCTGTCCGGGCTAATTTATTCGGTCTTTTGCCGGAGTCACCTAGTGCAG	3950 fluorescence intensity (a.u.)
AAAATAACTAATTGCACAGATTGTGACTAATTTGCGAGACCGGAGTCACCTAGTGCAG	34900 fluorescence intensity (a.u.)
